The results in this text go back to patent US20240082282A1 (priority 2020, published 2024).

Values after ≈ are worked out from the molar mass of the structure shown.

The subject of assay [1] is Escherichia coli W0153. Description: microbe, parasite or virus in culture. The settings on record: W0153, read-out: Minimum inhibitory concentration (MIC).
Assay [2] deals with Escherichia coli W0153.

Consider `CC1(C)S[C@@H]2[C@H](NC(=O)[C@H](N)c3ccc(O)cc3)C(=O)N2[C@H]1C(=O)O` [Amoxicillin], for which the MIC with Escherichia coli W0153 [1] worked out at 4 µg/mL (≈ 10.9 µM).

On to `CO/N=C(\C(=O)N[C@@H]1C(=O)N2C(C(=O)O)=C(CSc3nc(=O)c(=O)[nH]n3C)CS[C@H]12)c1csc(N)n1` [Ceftriaxone], for which the MIC with Escherichia coli W0153 [1] turned out to be 0.01 µg/mL (≈ 0.018 µM).

With Hygromycin A, in the assay on Escherichia coli W0153 [2], the “Minimum inhibitory concentration (MIC)” value was 16 µg/mL.

For `C[C@H]1c2cccc(O)c2C(=O)C2=C(O)[C@]3(O)C(=O)C(C(N)=O)=C(O)[C@@H](N(C)C)[C@@H]3[C@@H](O)[C@@H]21` [Doxycycline], the MIC in the assay with Escherichia coli W0153 [1] is 0.12 µg/mL (≈ 0.27 µM).
